The campaign covered roughly 52,000 compounds. About 1,700 (3.3%) were called active. Cut-off read from the data, not from the text of the source: active = survival mostly below about 52% (no sharp cut-off); inactive = mostly above about 56%. Some of the results follow.

This assay concerns Wild type. Put plainly: growth inhibition of S. aureus wild type versus tarO mutant, primary screen, teichoic acid synthesis inhibitors, RN4220, OD600 (AID 463173). The settings on record: S. aureus RN4220 wild type/DeltatarO growth, OD600, 18 h, stronger effect = lower value, screened at 18.75 µg/mL (by protocol).
For the compound `COc1ccc(N2CCN(C(=O)NCc3noc4ccccc34)CC2)cc1`, the survival is inactive: 79%. Consider `CSc1ccc(CCNC(=O)CCc2c(C)nc3cc(-c4ccccc4)nn3c2C)cc1`, for which the survival is inactive: 86%. On to `CCCOc1ccc(CN(C(=O)c2nc(SC(C)C)ncc2Cl)C2CCS(=O)(=O)C2)cc1` (stereo not given), for which the survival is inactive: 84%. The value for `CCOc1ccc(/C=C/c2nc(C#N)c(Nc3ccc(OC)cc3)o2)cc1` was inactive: 86%. As for `COc1ccc(OC)c(NC(=O)CCn2cnc3ccccc3c2=O)c1`, the figure is inactive: 86%; as for `N#Cc1ccccc1Cn1c(=O)n(Cc2ccc(C(=O)NC3CCN(Cc4ccccc4)CC3)cc2)c(=O)c2ccccc21`, inactive: 100%. For `CC(OC(=O)c1cc2sccc2n1C)C(=O)NC1CCCC1` (stereo not given), the survival was inactive: 101%. As for `O=C(Nc1c(C(=O)Nc2cccc(F)c2)oc2ccccc12)c1cc2ccccc2o1`, the figure is inactive: 44%. As for `Fc1ccc(-c2ccc(CNCCSc3nnnn3-c3ccccc3)o2)cc1Cl`, the figure is inactive: 23%; as for `COc1cc2[nH]c(=O)n(CCCCCC(=O)NCCc3ccccc3)c(=O)c2cc1OC`, inactive: 75%. The value for `CCNC(=O)c1ccc2nc(Cc3ccccc3)oc2c1` was inactive: 95%; that for `CCOC(=O)c1c(NC(=O)COc2cccc(C(F)(F)F)c2)sc2c1CCCCC2` was inactive: 72%; that for `CC(C)COc1ccc(C(=O)N2CCN(CCc3ccccn3)CC2)cc1` was inactive: 81%. As for `COc1cccc(C2c3c(-c4ccccc4O)n[nH]c3C(=O)N2CCc2ccc(OC)c(OC)c2)c1` (stereo not given), the survival is inactive: 35%. For the compound `O=C(CSc1ncc(CO)n1Cc1ccccc1)Nc1ccc(C(F)(F)F)cc1`, the survival was inactive: 120%.

Turning to `O=C(Nc1nnc(S(=O)(=O)N2CCc3ccccc32)s1)c1ccccc1`, the survival was inactive: 19%. As to `CC(=O)Nc1ccccc1C#N`, the survival was inactive: 115%. `CCOc1nc(-c2ccc(C)cc2)ccc1-c1noc(-c2ccccc2F)n1`: the survival was inactive: 59%. For the compound `Cc1ccc(-c2nc3ccc(Cl)cn3c2Nc2ccc3c(c2)OCCO3)s1`, the survival was inactive: 83%. As for `COc1ccc(CNC(=O)CN2C(=O)CCCc3ccccc32)cc1`, the figure is inactive: 82%. As for `CCN(CC)S(=O)(=O)c1ccc2oc(C(=O)Nc3ccc(Br)cc3F)c(C)c2c1`, the survival was inactive: 68%. The value for `COc1cc(NC(=O)c2cnc3c(-c4ccc(F)cc4)c(C)nn3c2C)cc(OC)c1` was inactive: 124%; that for `Cc1ccc(Sc2c(C(=O)NCc3ccccc3C)[nH]c3ccccc23)cc1` was inactive: 88%. In the case of `CCc1ccc(-c2nc(-c3cc4ccccc4oc3=O)sc2C)cc1`, the survival is inactive: 148%. As for `CCOc1ccc(CCNC(=O)Cn2ncn3c(cc4ccccc43)c2=O)cc1OCC`, the figure is inactive: 80%; as for `CCn1c(C(=O)Nc2cc(Cl)ccc2C)cc2sc(Cl)cc21`, inactive: 82%. For `COc1ccc(CCNC(=O)CCc2c(C)c3cc4c(C)c(C)oc4cc3oc2=O)cc1`, the survival was inactive: 111%. `COc1ccc(NC(=O)CC(C)n2nc(C)cc2C)cc1Cl` (stereo not given): the survival was inactive: 68%. As to `CCOC(=O)c1ccc(NS(=O)(=O)c2cc(Br)cc3c2N(C(C)=O)C(C)C3)cc1` (stereo not given), the survival is inactive: 83%. As for `Cc1ccccc1NC(=O)C(NC1CCCCC1)C(C)C` (stereo not given), the figure is inactive: 104%; as for `CCN(CCCNC(=O)c1nn(-c2ccc(OC)c(Cl)c2)c(=O)c2c1c1ccccc1n2C)c1cccc(C)c1`, inactive: 92%; as for `Cc1cccc(-n2ccnc2SCC(=O)Nc2nc3ccccc3s2)c1`, inactive: 92%.

Consider `CCOC(=O)C(=O)Nc1c(C(=O)Nc2cccc(F)c2)oc2ccccc12`, for which the survival is inactive: 123%. The value for `COc1ccccc1N1CCN(c2nc3c(S(=O)(=O)c4ccc(C)c(C)c4)nnn3c3ccc(Cl)cc23)CC1` was inactive: 83%; that for `Cc1cc(N2CCC(C(O)(c3ccccc3)c3ccccc3)CC2)nc(C)n1` was inactive: 113%; that for `Cc1cc2[nH]c(=O)c(=O)[nH]c2cc1S(=O)(=O)N1CCN(c2cccc(C)c2C)CC1` was inactive: 128%. For the compound `Cc1cccc(-c2nc(SCC(=O)NCc3ccco3)c3c(=O)n(C)c(=O)n(C)c3n2)c1`, the survival was inactive: 81%. As for `Cc1ccc(Cn2c(CNS(=O)(=O)c3ccc(Cl)s3)nc3cccnc32)cc1`, the figure is inactive: 136%; as for `CCc1c(C)sc(NC(=O)C2c3ccccc3Oc3ccccc32)c1C(=O)OC(C)C`, inactive: 25%; as for `COc1ccc(CNC(=O)c2cc(-c3ccc(C)c(C)c3)n[nH]2)cc1`, inactive: 67%. As for `CCc1ccccc1Nc1cc(C(=O)NC2CCC(C)CC2)c2ccccc2n1` (stereo not given), the figure is inactive: 90%. Turning to `CCOC(=O)c1cccc(NC(=O)C2CCCN(c3nnc(C)c4c(C)n(-c5ccccc5)nc34)C2)c1` (stereo not given), the survival is inactive: 70%. As for `O=C(Nc1cc(Cl)cc(Cl)c1)c1cc(S(=O)(=O)N2CCc3ccccc3C2)ccc1F`, the figure is inactive: 73%. For the compound `COc1ccc(OC)c(C2C(C(=O)Nc3ccccc3OC)=C(C)Nc3c(C(=O)Nc4ccc(F)cc4)cnn32)c1` (stereo not given), the survival was inactive: 131%.

On to `COc1ccc(C(=O)Nc2c(C(=O)c3ccccc3)oc3ccccc23)cc1`, for which the survival is inactive: 75%. As for `Cn1c(=O)c(=O)n(C)c2cc(N3CCOCC3)c(NS(=O)(=O)c3ccc(F)c(Cl)c3)cc21`, the figure is inactive: 63%. As for `Cc1ccc(-c2nnc3ccccc3c2C(=O)Nc2cccc(Cl)c2)cc1`, the figure is inactive: 153%; as for `COc1ccc(NC(=O)c2cc3cc(C)ccc3n2C)cc1`, inactive: 86%. The value for `N#C/C(C(=O)c1ccccc1)=C1/Nc2ccccc2C1=O` was inactive: 102%; that for `CC(C)(C)OC(=O)N1CCC(c2c(C(=O)NCc3ccc4c(c3)OCO4)cnn2-c2ccccc2Cl)CC1` was inactive: 75%; that for `O=C(O)CCCNc1ncnc2ccccc12` was inactive: 91%. For `COc1ccc(C(=O)Nc2nnc(S(=O)(=O)N(CC(C)C)c3ccccc3)s2)cc1`, the survival was inactive: 86%. The value for `O=C(O)CCOc1ccc2c(c1)OCCO2` was inactive: 110%.

For the compound `Cc1ccc(Cl)cc1NC(=O)c1ccc2snnc2c1`, the survival is inactive: 119%. As for `COc1cc(NC(=O)NCCn2nnc3cc(S(=O)(=O)N(C)C)ccc32)cc(OC)c1`, the figure is inactive: 57%.

As to `COc1ccc(NC(=O)c2ccc3c(c2)nnn3C2CCCC2)cc1Cl`, the survival was inactive: 85%. As for `Cc1ccc(Cn2c(C(=O)O)c(CNCc3cccs3)c3ccc(C)cc32)cc1`, the figure is inactive: 63%. The value for `CC1=C(C(N)=O)C(c2ccc(F)cc2)n2nc(-c3ccc(N(C)C)cc3)nc2N1` (stereo not given) was inactive: 79%; that for `CCN(C(=O)c1cc(S(=O)(=O)N2CCc3ccccc32)cn1C)c1cccc(C)c1` was inactive: 94%; that for `CNS(=O)(=O)c1cn(CC(=O)Nc2ccc(C)c(N(C)C)c2)cc1S(=O)(=O)NC` was inactive: 82%. Turning to `CC(=O)Nc1ccc(NC2OC(=O)c3ccccc32)cc1` (stereo not given), the survival was inactive: 113%.

For the compound `Cc1ccc(-c2nn(CC(=O)NC3CCCCC3)c3c2cnc2ccccc23)cc1`, the survival is inactive: 75%. For the compound `Cc1ccc2c(=O)c(C(=O)c3ccc(F)cc3)cn(CC(=O)NCc3ccccc3Cl)c2n1`, the survival was inactive: 97%.

`Cc1ccc(Cl)cc1N1CCN(C(=O)c2cccn2-c2nnc(N3CCCC3)s2)CC1`: the survival was inactive: 78%. As for `CCn1ccc2cc(S(=O)(=O)N3CCCN(C(=O)Nc4ccc(C)c(F)c4)CC3)ccc21`, the figure is inactive: 89%; as for `CCCc1ccc(OCC(=O)Nc2sc3c(c2C(=O)OC)CCCCC3)cc1`, inactive: 43%. In the case of `CC(C)CC(=O)NCC1(N(C)C)CCCCC1`, the survival was inactive: 87%. As for `CCCCOc1ccccc1C(=O)Nc1nonc1-c1ccccc1`, the figure is inactive: 108%; as for `Cc1cccc(N(C)c2nc3ccc(C)cc3n3cnnc23)c1`, inactive: 76%. The value for `Cc1ccc(CNC(=O)CCCN2C(=O)c3cccnc3Oc3ccc(Cl)cc32)cc1` was inactive: 125%; that for `Cc1nc(-c2ccccc2)sc1CCNC(=O)C(=O)Nc1ccc2c(c1)OCCO2` was inactive: 63%. The value for `CCOc1ccc(NC(=O)c2cc3c(s2)-c2ccccc2OC3)cc1` was inactive: 100%; that for `OC(C#CCN1CCCC1)(c1ccccc1)C1CCCC1` (stereo not given) was inactive: 104%. With `Cc1cccc(NC(=O)C(Cc2ccccc2)n2cccc2)c1C` (stereo not given), the survival is inactive: 84%. As for `Nc1nc2ccc(C(=O)O)cc2s1`, the figure is inactive: 102%; as for `COc1cc(OC)c(NC(=O)N2CCc3c(sc4c3CCCC4)C2c2ccccc2)cc1Cl` (stereo not given), inactive: 69%. As for `CC(C(=O)N1CCCC1)N1CCN(c2ccc(F)cc2)CC1` (stereo not given), the figure is inactive: 95%. The value for `O=C(Nc1nnc(S(=O)(=O)N2CCCCCC2)s1)c1ccccc1Cl` was inactive: 41%; that for `COc1ccccc1Cc1nc2ccccc2nc1SCC(=O)N1CCc2ccccc21` was inactive: 49%. Regarding `COc1ccccc1N1CCN(c2ccc(-c3nc(-c4ccccc4C)no3)cc2[N+](=O)[O-])CC1`, the survival was inactive: 84%. With `Cc1cccc(-c2nc(CSCC(=O)N3CCN(c4ccccc4)CC3)c(C)o2)c1`, the survival was active: 18%. Take `FC(F)(F)c1cccc(-c2nnn3c2nc(NC2CCCCC2)c2ccccc23)c1`: the survival is inactive: 28%.

With `Cc1cccc(N2CCN(C(=O)Cn3cnc4sc(C)c(S(=O)(=O)N5CCN(c6ncccn6)CC5)c4c3=O)CC2C)c1` (stereo not given), the survival is inactive: 71%.

On to `CCC(C)NC(=O)C1CCN(C(=O)c2ccc(-n3ccc4ccccc43)s2)CC1` (stereo not given), for which the survival was inactive: 55%. As for `COc1ccccc1CCNC(=O)Cc1c(C)c2c(cc(C)c3c(C)c(C)oc32)oc1=O`, the figure is inactive: 85%; as for `CCOC(=O)c1ccc(NC(=O)CSc2nccn2-c2ccc(OCC)cc2)cc1`, inactive: 81%; as for `COc1ccc(NC(=O)C(C)n2nnc3sc(-c4ccccc4)cc3c2=O)cc1Cl` (stereo not given), inactive: 75%. As to `COc1cc([N+](=O)[O-])ccc1NC(=O)N1CCN(c2cc(-c3noc(C)n3)ccc2C)CC1`, the survival is inactive: 78%. As for `CCOc1ccccc1CNC(=O)C1CCN(S(=O)(=O)c2c(C)noc2/C=C/c2ccc(C)cc2)CC1`, the figure is inactive: 120%. As for `COc1cccc(NC(=O)C(=O)NCCc2csc(-c3ccc(C(F)(F)F)cc3)n2)c1`, the figure is inactive: 87%.

For the origin of these results see PubChem BioAssay AID463173 (ICCB-Longwood Screening Facility, Harvard Medical School, 2010).
